The record followed here is ChEMBL document CHEMBL4888484, “Replenishing the malaria drug discovery pipeline: Screening and hit evaluation of the MMV Hit Generation Library 1 (HGL1) against asexual blood stage Plasmodium falciparum ,using a nano luciferase reporter read-out” (2022).

What is called % Inhibition is the drop in the measured response relative to a control, in per cent.

In all, about 150,000 compounds went through this assay and about 540 (0.36%) showed an effect of 50% or more. This is one part of the list.

For this assay, the system named is Plasmodium falciparum. Kind of assay: Primary screen in NF54 nanoGlo assay, in single point, at 2uM, 72h; a lower Z score goes with more inhibition. Format: functional, Erythrocyte. As to conditions: timepoint 72 hour.
Turning to `Cc1ccnn1CCC(=O)N[C@H]1CCC[C@H]1Cc1ccc(F)cc1`, the “% Inhibition” value is given as -18% and the Z score is given as 1.89.
As for `CC[C@H](C)NC(=O)CN1CCN(C(=O)c2ncoc2-c2ccc(C)cc2)CC1`, the “% Inhibition” value is recorded as -6% and the Z score came to 0.78.
For `Cc1[nH]c2ccccc2c1C1CCN(CC2(CO)COC2)CC1`, the “% Inhibition” value was -1% and the Z score is recorded as 0.18.
The matching figures for `c1csc(-c2nnc(C3CCCCC3)o2)c1`: -15% and 2.34.
In the case of `N#Cc1c(N)nc2c(c1-c1c[nH]cn1)CCc1occc1-2`, the “% Inhibition” value amounted to 3% and the Z score was -0.52.
On to `c1cc(CN2CC(N3CCOCC3)C2)cc(-c2ccco2)c1`, for which the “% Inhibition” value is -18% and the Z score came out at 1.97.
The matching figures for `COc1ccc(CC(=O)NO[C@@H](C)C(=O)Nc2c(C)cc(C)cc2Cl)cc1OC`: 2% and -0.19.
As for `COc1ccc(CNC(=O)Cn2cnc3oc(C)c(C)c3c2=O)cc1`, the “% Inhibition” value is recorded as -11% and the Z score came out at 1.32.
As to `COc1cccc(N2CCN(C(=O)c3cc(N)ccn3)[C@@H](C)C2=O)c1`, the “% Inhibition” value is listed as -16% and the Z score worked out at 1.97.
Turning to `Cc1cnc(NC(=O)C2CCC(=O)N(C)C2c2cccc(F)c2)s1` (stereo unspecified), the “% Inhibition” value was found to be 34% and the Z score is reported as -4.6.
As for `O=C(Cc1ccccc1)N[C@H]1CCCc2c1[nH]c1c(Cl)cccc21`, the “% Inhibition” value is reported as -16% and the Z score amounted to 3.1.
The like results for `O=C(NCc1ccc2c(c1)OCO2)c1nn(-c2ccc(F)cc2)c2ccccc2c1=O` were, in that order, -5% and 0.69.
The like results for `O=C(NC1CCCC1)N1CCC[C@H](C(=O)N2CCN(c3cccc(Cl)c3)CC2)C1` were, in that order, -5% and 0.92.
As to `c1ccc(CN2C3CCCC2CC(NCc2cc[nH]n2)C3)cc1` (stereo unspecified), the “% Inhibition” value worked out at 2% and the Z score is listed as -0.44.
The like results for `Cc1nc(C2CN(c3ncnc4[nH]ncc34)C2)n[nH]1` were, in that order, -9% and 0.95.
For `CN(CCNS(=O)(=O)c1ccc2ccccc2c1)C1CC1`, the “% Inhibition” value is listed as -6% and the Z score came out at 0.59.
On to `COc1ccc(-n2cc(-c3ccc(Cl)cc3)nc2NC(=O)CN(CC(C)C)C(C)=O)cc1`, for which the “% Inhibition” value is 4% and the Z score is recorded as -0.79.
The matching figures for `Cc1noc([C@H](C)NC(=O)c2nccn2C)n1`: -4% and 0.71.
With `CN(CCCc1cccnc1)C[C@H]1COCCO1`, the “% Inhibition” value is -12% and the Z score stood at 1.54.
For the compound `CC(C)CN1CCC(C(=O)N2CC3CCC(NC(=O)OC(C)(C)C)C3C2)C1` (stereo unspecified), the “% Inhibition” value was -2% and the Z score was 0.31.
With `COc1ccc(CN2CC(c3ccccn3)C2)cc1OC[C@@H](O)CN(C)C(C)C`, the “% Inhibition” value came out at 4% and the Z score was -0.66.
For `COc1ccccc1N1CCN(C(=O)Cc2ccc(C)nc2)CC1`, the “% Inhibition” value was -15% and the Z score stood at 2.38.
Regarding `Cn1c(=O)c2c(n(C)c1=O)[n+](C)cn2Cc1ccccc1`, the “% Inhibition” value stood at 29% and the Z score was -3.75.
The matching figures for `Cc1ccc(CNC(=O)N2CCC3(CC2)CN(C(C)C)[C@@H]3c2ccccc2)cc1`: 0% and 0.
On to `CCOC(=O)c1snc(C(=O)N2CCOCC2)c1N`, for which the “% Inhibition” value was found to be 3% and the Z score was -0.44.
In the case of `c1ccc2c(-c3nc4c(c(N5CCC(N6CCCC6)CC5)n3)CNC4)c[nH]c2c1`, the “% Inhibition” value is reported as -14% and the Z score was 1.36.
With `Cc1ccc(NC(=O)[C@@](F)(Cl)C(F)(F)F)c(C)c1`, the “% Inhibition” value is -8% and the Z score was found to be 0.88.
On to `Cc1ccsc1C(=O)NC(C)(C)c1nc2c(c(C(N)=O)n1)OCO2`, for which the “% Inhibition” value is given as -3% and the Z score came to 0.56.
As for `CCCn1ccnc1CN1C[C@@H]2CC[C@H]1CN(Cc1c(C)noc1C)C2`, the “% Inhibition” value was 0% and the Z score is given as 0.04.
`Cc1cnc(CN2CCC[C@@H](NC(=O)OC(C)(C)C)C2)s1`: the “% Inhibition” value amounted to 1% and the Z score is -0.13.
With `FC(F)c1cncc(-c2cnn(C[C@H]3CCOC3)c2)c1`, the “% Inhibition” value is -5% and the Z score stood at 0.69.
In the case of `O=C([C@H]1CCC(=O)N(C2CCCC2)C1)N1CCN(c2nccs2)CC1`, the “% Inhibition” value was -9% and the Z score was determined as 1.82.
Turning to `Cc1[nH]ncc1C(=O)NC[C@H](O)c1cc2ccccc2s1`, the “% Inhibition” value is -2% and the Z score was determined as 0.4.
The matching figures for `Cc1nc(Cn2cc(C3CCCCC3)nn2)oc1C`: -6% and 0.87.
`COc1ccccc1NC(=O)CC1=Nc2ccccc2S(=O)(=O)N1`: the “% Inhibition” value turned out to be 3% and the Z score is on record as -0.33.
`CC1CCN(S(=O)(=O)N2CCN(Cc3cccnc3)CC2)CC1`: the “% Inhibition” value is on record as 2% and the Z score was -0.39.
As for `Cc1cc(NC(=O)NCCc2n[nH]c(=O)n2C)c(Cl)cc1F`, the “% Inhibition” value amounted to 12% and the Z score is -1.49.
Regarding `CC1(C)CN(C2(CNC(=O)[C@H]3CCc4[nH]ncc4C3)CCCCC2)CCO1`, the “% Inhibition” value is -1% and the Z score amounted to 0.2.
`O=C(Cc1ccccc1)Nc1ccc(Nc2ccccc2)cc1`: the “% Inhibition” value is -3% and the Z score is recorded as 0.47.
In the case of `CC[C@H](C)N(CCO)Cc1cscn1`, the “% Inhibition” value was -6% and the Z score worked out at 0.83.
The matching figures for `Cc1ccc(CN(Cc2ccccc2)C(=O)CN(C(=O)C2CCC2)C(C)C)o1`: -3% and 0.5.
With `COC(CNC(=O)C1CC(=O)N(C)C1)C(C)(C)C` (stereo unspecified), the “% Inhibition” value was -9% and the Z score stood at 1.53.
As to `CC(C)C(C)(C)CNCc1cncs1`, the “% Inhibition” value amounted to 10% and the Z score was -0.92.
